Results from the RNAGym collection of RNA variant scans (doi:10.1073/pnas.2313332121).
This sample is rich in variants without activity.

B1: TPR 5TU (parent)
chain: GGAUCUUCUCGAUCUAACAAAAAAGACAAAUCUGCCACAAAGCUUGAGAGCAUCUUCGGAUGCAGAGGCGGCAGCCUUCGGUGGCGCGAUAGCGCCAACGUUCUCAACUAUGACACGCAAAACGCGUGCUCCGUUGAAUGGAGUUUAUCAUG

Variants of: B1
Test: polymerase ribozyme fitness, log enrichment relative to wild type (log ratio); higher = more active; in vitro selection for triplet polymerase activity
Outline: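 Fitness compares each genotype's enrichment to that of the wild type on a logarithmic scale, averaging replicates with inverse-variance weights. The logarithm is base 2. Enrichment came from Illumina sequencing of input and output libraries after one triplicate round of in vitro selection, which included frozen incubation at −7 °C, of PCR-built, transcribed mutant libraries of each subunit of a heterodimeric triplet polymerase ribozyme. Only genotypes with ≥10 input reads and ≥1 read per output were kept.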

Polymerase ribozyme fitness (log ratio), ≤ -4.2:
A29G G50A C132G U144G
A29C C76A C87A C99U C105U
A29C A41C G81A C129A
A29C C32G C87G C95A C114U C123U
A29C C96U A106U U111C U144G
A29U A41U G71U
A28U U45A C57U A60C G84U A98U G117C
A29G C76G G84C C96U C99U A120U
A29G C57G A73C C85U A107U A110U
A28U A49C C93A A120U
A29G U82A C118U U144G
A29G U44A C72U G94U A98G A106U A121U A142C
A29C G48A A73G G86U U109C C118G U134A U148G
A28U G117A C131A A137U
A29G A39C G48A A52C C75A G86A C123G G143U
A29G A39C A60G G83A C95U U130G G133C
A29C A41C C85U A113G
A29C U44A C51U C79U C118U A142U U146C
A29C G46A U61G G92C
A28U G42U A64G C76A G92U C93U A97C
A28U U56A G59C U61G G70A A119C U139C
A28U C35U G94C A122C
A29U A37U C75A C76A U77A C95G C125U G136A G141U
A28G G92U C108G
A29G A39G U82A G86U
A29C G48U C54U C69A C85A A110C U134A G141A
A28U C35U U144C
A29G A41C G88U A91U
A28U G62U G81C C95U C99U U102C U145G
A28G G81A G83C G84A A106U G136C G152C
A28U U44A C87G A106C
A28U U53A C57U A91U C95U
A29C A47G C69A G83U G84A C114A
A29G U82C C87G
A29C A41C G58A C75A C79U G83A
A29G G88C
A28U C35A C79A C99G
A29G U45A G50A G86A A110G A119U
A29G C95G U127G
A29G U55G G94A C108A A119G
A29C U33A G50C U53G G68U G124A
A29G C43U C51U A66U C76U G92A
A29C C95G A138G A147C
A28U C79G
A29C U53A C57U C76U U82A G83A A107G
A28U C93G A97G C105A A107G G117A U148A
A28U U53G A91U G143C
A28U C116U
A28U A29G A40G C85G U90G U134G
A29G G84C G88A
A28U C35A C38U G92C
A29G A41G A49G C54U G68C U102A
A28U A73G U77C C85U
A29C U33G U44G A47G C96U C103G
A29C G50C G83A A98U
A29C U44A G59U C72U C131G
A29C G67C A89U G94U
A29C A47U C76G C79A A97U C99A C125G U134A U144G
A29G G86A C95U A147U
A29C A49C U61A A138C
A28U A41U G50C G84A C99G U127C
A29G G50C U55A C57A U101A U104G C125U A142C A150C
A29U A40U G68U C69U G92A G140C
A29C C43A G136C
A29G G80A C85U U109A U146C
A29C A37C C69A A106C C108A U148A
A28U U55G A110C A121U C149A
A28U A39U U56A C72U U78G C85U C93U
A28U C57G C76A A107U C114G A120C
A29C C57A A60U A66G C95A A110C C114U
A28U A37C U139C U151G
A28U C35U C87A A142C
A29C A41U C85U C93G G136A G140U
A28U A66G G88U A91U
A29G C43A G48C C93G G126C
A28U A47C C63G G86C C129A
A29C C87A A115U A142C
A29C G71A G143U
A29U A40U G83C G133A G152C
A29G A66U C87G U101A
A29G U31C C36U C54G U82C G86C C93U
A28U A39C C93U G126C A150G
A29G G59A C79G G94A G141C A142G
